Source: PMC9345960, “ERK1/2 inhibits Cullin 3/SPOP-mediated PrLZ ubiquitination and degradation to modulate prostate cancer progression” (Cell Death and Differentiation, 2022)
Read-outs that look alike come from different tables or passages of the source. No constants are given. Whether binding was seen depends on the method and setting. For some assays here: In cells and extracts the contact can be indirect. Some results given as binding are weak or reduced against the parent protein; the word gives no strength. For some assays here: Sequences can lack the tags named with a protein. Blank lines part the entries; values can stand above or below the molecule they belong to.

Sequences of proteins named here, by UniProt entry; tags and fusion partners are left off.
UniProt O43791: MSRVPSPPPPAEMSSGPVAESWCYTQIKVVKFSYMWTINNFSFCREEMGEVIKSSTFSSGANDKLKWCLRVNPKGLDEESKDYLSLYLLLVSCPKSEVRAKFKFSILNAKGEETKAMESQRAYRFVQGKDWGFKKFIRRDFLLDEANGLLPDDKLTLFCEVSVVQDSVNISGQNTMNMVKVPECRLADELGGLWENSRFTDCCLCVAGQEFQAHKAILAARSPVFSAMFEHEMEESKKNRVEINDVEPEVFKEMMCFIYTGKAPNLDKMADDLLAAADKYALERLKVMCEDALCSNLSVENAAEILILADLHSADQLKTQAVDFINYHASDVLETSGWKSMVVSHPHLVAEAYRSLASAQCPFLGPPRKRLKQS

How the values were obtained:
HA-PrLZ, wild type [1] = target: T1, HA-PrLZ, wild type (UniProt P55327); experiment: co-IP; anti-HA agarose IP (4 h, 4 °C, EBC lysis buffer) from transfected 293T cells: HA-PrLZ with Flag-tagged BTB proteins (Fig. 2a), HA-SPOP WT or mutants with Flag-PrLZ (Fig. 3d), HA-ERK1 or HA-ERK2 with Flag-PrLZ (Fig. 5e); in some panels 20 μM MG132 for 6 h
T1 sequence: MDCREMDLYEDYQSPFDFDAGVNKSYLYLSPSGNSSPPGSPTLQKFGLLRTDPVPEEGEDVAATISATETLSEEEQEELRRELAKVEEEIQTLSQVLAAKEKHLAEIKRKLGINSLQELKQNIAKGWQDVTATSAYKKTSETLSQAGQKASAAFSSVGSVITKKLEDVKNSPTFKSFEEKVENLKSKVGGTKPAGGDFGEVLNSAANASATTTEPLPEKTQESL

[2] = target: T2, GST-PrLZ, wild type (bacterial) (UniProt P55327); experiment: pull-down; GST pull-down: purified GST-PrLZ and HA-SPOP or His-SPOP incubated 3 h at 4 °C, washed with RIPA buffer, western blot (Fig. 2c: antibody against His); both purified
T2 sequence: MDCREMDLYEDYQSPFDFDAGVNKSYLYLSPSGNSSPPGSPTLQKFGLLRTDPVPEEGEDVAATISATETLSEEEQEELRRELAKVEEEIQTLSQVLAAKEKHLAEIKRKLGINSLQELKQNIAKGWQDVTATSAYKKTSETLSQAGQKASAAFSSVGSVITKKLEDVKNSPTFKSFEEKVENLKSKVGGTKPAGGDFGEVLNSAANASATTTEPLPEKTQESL

[3] = target: T2, GST-PrLZ, wild type (bacterial); experiment: pull-down; GST-PrLZ proteins (where indicated first incubated with recombinant ERK1 and ATP for 60 min) and 35S-labeled SPOP with Glutathione Sepharose 4B beads, 3 h at 4 °C; autoradiography (Fig. 5i); only the target purified
GST-PrLZ 1-46 = target: T3, GST-PrLZ 1-46 (UniProt P55327); experiment: co-IP; immunoprecipitation assay, Fig. S4a (legend not shown)
T3 sequence: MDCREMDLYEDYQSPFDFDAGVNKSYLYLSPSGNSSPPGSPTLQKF

[4] = target: T4, biotinylated S40A-mutated PrLZ peptide (30-42); experiment: pull-down; biotinylated PrLZ peptide pull-down from WCL of 293T cells transfected with HA-SPOP (Fig. 4k); only the target purified
T4 sequence (peptide, biotinylated (position not stated)): SPSGNSSPPGAPT

[5] = target: T5, biotinylated WT-PrLZ peptide (30-42); experiment: as above
T5 sequence (peptide, biotinylated (position not stated)): SPSGNSSPPGSPT

[6] = target: T6, Flag-PrLZ (Prostate Leucine Zipper), wild type (UniProt P55327); experiment: co-IP; anti-Flag agarose IP (4 h, 4 °C, EBC lysis buffer) from 293T cells transfected with Flag-PrLZ constructs and Myc-Cullin 3 or HA-SPOP constructs (Figs. 1d, 3b, 4d, 4g, 5b, 5k, 6d); in some panels 20 μM MG132 for 6 h, SCH772984 (3 μM) or IL-6 (50 ng/ml, 48 h) before harvest
T6 sequence: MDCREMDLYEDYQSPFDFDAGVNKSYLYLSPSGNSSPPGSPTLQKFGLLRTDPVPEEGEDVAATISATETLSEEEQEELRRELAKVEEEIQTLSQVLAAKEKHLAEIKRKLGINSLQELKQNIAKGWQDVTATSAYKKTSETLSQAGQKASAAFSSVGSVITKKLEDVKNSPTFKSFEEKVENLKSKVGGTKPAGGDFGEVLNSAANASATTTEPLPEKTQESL

Flag-PrLZ S40D = target: T7, Flag-PrLZ S40D (UniProt P55327); experiment: as above
T7 sequence: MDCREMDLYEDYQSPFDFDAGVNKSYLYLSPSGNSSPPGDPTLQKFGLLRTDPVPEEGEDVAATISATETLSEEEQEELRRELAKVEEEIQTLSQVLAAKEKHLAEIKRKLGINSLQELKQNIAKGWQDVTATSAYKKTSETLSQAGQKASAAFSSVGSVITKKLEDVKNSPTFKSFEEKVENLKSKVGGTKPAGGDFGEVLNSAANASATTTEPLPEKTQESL

HA-PrLZ, wild type [7] = target: T1, HA-PrLZ, wild type; experiment: co-IP; anti-HA agarose IP (4 h, 4 °C, EBC lysis buffer) from transfected 293T cells: HA-PrLZ with Flag-tagged BTB proteins (Fig. 2a), HA-SPOP WT or mutants with Flag-PrLZ (Fig. 3d), HA-ERK1 or HA-ERK2 with Flag-PrLZ (Fig. 5e); in some panels 20 μM MG132 for 6 h; remark: listed apart in the source
[8] = target: endogenous SPOP (C4-2 cells) (human (endogenous in C4-2)) (UniProt O43791); experiment: co-IP; anti-SPOP IP of endogenous proteins from C4-2 cells treated with 20 μM MG132 for 6 h (Fig. 2b)

binding (GST-PrLZ 1-46): binds | binding [4]: no binding | binding [5]: binds | binding [6]: binds | binding (Flag-PrLZ S40D): no binding
Molecule: HA-SPOP, wild type (from UniProt O43791 1-374)

binding (HA-PrLZ, wild type [7]): no binding
B2: Flag-PLZF (protein, UniProt Q05516 1-673)
chain: MDLTKMGMIQLQNPSHPTGLLCKANQMRLAGTLCDVVIMVDSQEFHAHRTVLACTSKMFEILFHRNSQHYTLDFLSPKTFQQILEYAYTATLQAKAEDLDDLLYAAEILEIEYLEEQCLKMLETIQASDDNDTEATMADGGAEEEEDRKARYLKNIFISKHSSEESGYASVAGQSLPGPMVDQSPSVSTSFGLSAMSPTKAAVDSLMTIGQSLLQGTLQPPAGPEEPTLAGGGRHPGVAEVKTEMMQVDEVPSQDSPGAAESSISGGMGDKVEERGKEGPGTPTRSSVITSARELHYGREESAEQVPPPAEAGQAPTGRPEHPAPPPEKHLGIYSVLPNHKADAVLSMPSSVTSGLHVQPALAVSMDFSTYGGLLPQGFIQRELFSKLGELAVGMKSESRTIGEQCSVCGVELPDNEAVEQHRKLHSGMKTYGCELCGKRFLDSLRLRMHLLAHSAGAKAFVCDQCGAQFSKEDALETHRQTHTGTDMAVFCLLCGKRFQAQSALQQHMEVHAGVRSYICSECNRTFPSHTALKRHLRSHTGDHPYECEFCGSCFRDESTLKSHKRIHTGEKPYECNGCGKKFSLKHQLETHYRVHTGEKPFECKLCHQRSRDYSAMIKHLRTHNGASPYQCTICTEYCPSLSSMQKHMKGHKPEEIPPDWRIEKTYLYLCYV

binding (HA-PrLZ, wild type [7]): no binding
B3: Flag-KLHL2 (protein, UniProt O95198 1-593)
chain: METPPLPPACTKQGHQKPLDSKDDNTEKHCPVTVNPWHMKKAFKVMNELRSQNLLCDVTIVAEDMEISAHRVVLAACSPYFHAMFTGEMSESRAKRVRIKEVDGWTLRMLIDYVYTAEIQVTEENVQVLLPAAGLLQLQDVKKTCCEFLESQLHPVNCLGIRAFADMHACTDLLNKANTYAEQHFADVVLSEEFLNLGIEQVCSLISSDKLTISSEEKVFEAVIAWVNHDKDVRQEFMARLMEHVRLPLLPREYLVQRVEEEALVKNSSACKDYLIEAMKYHLLPTEQRILMKSVRTRLRTPMNLPKLMVVVGGQAPKAIRSVECYDFKEERWHQVAELPSRRCRAGMVYMAGLVFAVGGFNGSLRVRTVDSYDPVKDQWTSVANMRDRRSTLGAAVLNGLLYAVGGFDGSTGLSSVEAYNIKSNEWFHVAPMNTRRSSVGVGVVGGLLYAVGGYDGASRQCLSTVECYNATTNEWTYIAEMSTRRSGAGVGVLNNLLYAVGGHDGPLVRKSVEVYDPTTNAWRQVADMNMCRRNAGVCAVNGLLYVVGGDDGSCNLASVEYYNPTTDKWTVVSSCMSTGRSYAGVTVIDKPL

binding [8]: binds
B4: endogenous PrLZ (C4-2 cells) (protein, UniProt P55327 1-224)
chain: MDCREMDLYEDYQSPFDFDAGVNKSYLYLSPSGNSSPPGSPTLQKFGLLRTDPVPEEGEDVAATISATETLSEEEQEELRRELAKVEEEIQTLSQVLAAKEKHLAEIKRKLGINSLQELKQNIAKGWQDVTATSAYKKTSETLSQAGQKASAAFSSVGSVITKKLEDVKNSPTFKSFEEKVENLKSKVGGTKPAGGDFGEVLNSAANASATTTEPLPEKTQESL

binding (HA-PrLZ, wild type [7]): no binding
B5: Flag-KLHL22 (protein, UniProt Q53GT1 1-634)
chain: MAEEQEFTQLCKLPAQPSHPHCVNNTYRSAQHSQALLRGLLALRDSGILFDVVLVVEGRHIEAHRILLAASCDYFRGMFAGGLKEMEQEEVLIHGVSYNAMCQILHFIYTSELELSLSNVQETLVAACQLQIPEIIHFCCDFLMSWVDEENILDVYRLAELFDLSRLTEQLDTYILKNFVAFSRTDKYRQLPLEKVYSLLSSNRLEVSCETEVYEGALLYHYSLEQVQADQISLHEPPKLLETVRFPLMEAEVLQRLHDKLDPSPLRDTVASALMYHRNESLQPSLQSPQTELRSDFQCVVGFGGIHSTPSTVLSDQAKYLNPLLGEWKHFTASLAPRMSNQGIAVLNNFVYLIGGDNNVQGFRAESRCWRYDPRHNRWFQIQSLQQEHADLSVCVVGRYIYAVAGRDYHNDLNAVERYDPATNSWAYVAPLKREVYAHAGATLEGKMYITCGRRGEDYLKETHCYDPGSNTWHTLADGPVRRAWHGMATLLNKLYVIGGSNNDAGYRRDVHQVACYSCTSGQWSSVCPLPAGHGEPGIAVLDNRIYVLGGRSHNRGSRTGYVHIYDVEKDCWEEGPQLDNSISGLAACVLTLPRSLLLEPPRGTPDRSQADPDFASEVMSVSDWEEFDNSSED

More lines, now with the values behind:

Molecule: Flag-SPOP (from UniProt O43791 1-374)
binding (HA-PrLZ, wild type [1]): binds

Molecule: His-SPOP (Abcam, 105599) (from UniProt O43791 1-374)
binding [2]: binds

Molecule: 35S-labeled SPOP protein (from UniProt O43791 1-374)
binding [3]: binds

B1: Flag-KLHL37 (protein, UniProt O14682 1-589)
chain: MSVSVHENRKSRASSGSINIYLFHKSSYADSVLTHLNLLRQQRLFTDVLLHAGNRTFPCHRAVLAACSRYFEAMFSGGLKESQDSEVNFDNSIHPEVLELLLDYAYSSRVIINEENAESLLEAGDMLEFQDIRDACAEFLEKNLHPTNCLGMLLLSDAHQCTKLYELSWRMCLSNFQTIRKNEDFLQLPQDMVVQLLSSEELETEDERLVYESAINWISYDLKKRYCYLPELLQTVRLALLPAIYLMENVAMEELITKQRKSKEIVEEAIRCKLKILQNDGVVTSLCARPRKTGHALFLLGGQTFMCDKLYLVDQKAKEIIPKADIPSPRKEFSACAIGCKVYITGGRGSENGVSKDVWVYDTLHEEWSKAAPMLVARFGHGSAELKHCLYVVGGHTAATGCLPASPSVSLKQVEHYDPTINKWTMVAPLREGVSNAAVVSAKLKLFAFGGTSVSHDKLPKVQCYDQCENRWTVPATCPQPWRYTAAAVLGNQIFIMGGDTEFSACSAYKFNSETYQWTKVGDVTAKRMSCHAVASGNKLYVVGGYFGIQRCKTLDCYDPTLDVWNSITTVPYSLIPTAFVSTWKHLPS
binding (HA-PrLZ, wild type [7]): no binding

B6: Flag-KLHL3 (protein, UniProt Q9UH77 1-587)
chain: MEGESVKLSSQTLIQAGDDEKNQRTITVNPAHMGKAFKVMNELRSKQLLCDVMIVAEDVEIEAHRVVLAACSPYFCAMFTGDMSESKAKKIEIKDVDGQTLSKLIDYIYTAEIEVTEENVQVLLPAASLLQLMDVRQNCCDFLQSQLHPTNCLGIRAFADVHTCTDLLQQANAYAEQHFPEVMLGEEFLSLSLDQVCSLISSDKLTVSSEEKVFEAVISWINYEKETRLEHMAKLMEHVRLPLLPRDYLVQTVEEEALIKNNNTCKDFLIEAMKYHLLPLDQRLLIKNPRTKPRTPVSLPKVMIVVGGQAPKAIRSVECYDFEEDRWDQIAELPSRRCRAGVVFMAGHVYAVGGFNGSLRVRTVDVYDGVKDQWTSIASMQERRSTLGAAVLNDLLYAVGGFDGSTGLASVEAYSYKTNEWFFVAPMNTRRSSVGVGVVEGKLYAVGGYDGASRQCLSTVEQYNPATNEWIYVADMSTRRSGAGVGVLSGQLYATGGHDGPLVRKSVEVYDPGTNTWKQVADMNMCRRNAGVCAVNGLLYVVGGDDGSCNLASVEYYNPVTDKWTLLPTNMSTGRSYAGVAVIHKSL
binding (HA-PrLZ, wild type [7]): no binding
